According to the supplement of paper PMC8728848:
This is one part of the list.

Key:
[1] = molecular target: Neu5Gc(a2-8)Neu5Gc(a2-6)Gal(b1-4)GlcNAc; assay: glycan array binding signal (z-score within array); higher = stronger binding; details: glycan notation: IUPAC condensed, linker removed
Outline: (§1)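 The binding signal is a Z-score computed within each array. Data were drawn from 3228 arrays in the Consortium for Functional Glycomics database, restricted to those with a known protein sequence. Scores were averaged over arrays of the same protein sequence at different concentrations or buffers, and over linkers, and negative values can be taken as non-binding.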

[2] = molecular target: Neu5Gc(b2-6)Gal(b1-4)GlcNAc; assay: as above; details: glycan notation: IUPAC condensed, linker removed
Outline: as §1

B1: Epa10 (protein)
chain: MNEKIFRYLTLLFLFELARSLPVEDKLNIKKVFEKRAVDFTPFAHYPRPEGCSSPPNSVSVGLHMNLYNYPYLYVKPSTKGMFTNDTNSDADGETDGDSAGGIEGRAGQCWNPEYQDPNFPRFGYKQYGEFGASDNVNGDISWDHNEFTEGCKPVLAALPPGYNYPDEITFSNFTMVLSGYFKPKTSGVYKFELKADDFILFNFGAKNAFECCNREESIDNFGPYVAYAMWPNQADQELEVYLFEDSYYPLRLFYNNRDYHSKFKIGFYPPGQTTITFDFDGYLFMLDDTGNECRDSIRYRTVCDDKVVDDTTYSTRYSTSMVPGGGSDVITIYYIRMKCEEEDCLGQWDPINNVCYSPDDCADDGGYWNGQMCDQSCKLEGGIVNPDTGDCDKSCIESGGFLDENGNCDTTCRDDGGMLVEGQCDYQCKEAGGILVGDHCDTTCVDSGGKLNEDGTCDHSCRDQGGQLDENGECDTSCKDSGGMLIEGECDTSCKDEGGQLDDNNECINHCKDQGGIIDENGNCDTSCKDSGGKLDESGACDTSCRDDGGIIDENGNCNTTCRDDGGIIVGDHCDTSCRDAGGILIEDHCDTTCRDSGGKLNEDGTCDHSCRDQGGQLDENGKCDYSCKNGGGKLDEDGNCDMSCKENGGKLDENGDCDLSCKEDGGKLDGNGDCDYSCKEEGGVIDESGNCNTTCKDSGGQIIDGECNYGCIEVGGVVIDGECDTSCIDSGGILDGDGNCDRSCIESGGVLEDGACNTTCRDSGGQLNVDGTCDTSCRDDGGMLVEGQCDYQCKEAGGILEDGECVFPPTSSSTSETSSTTDQSSLQSDDSSMESSSTPMDSSTIESSSSEIITSESESESVPIASSSSEVMTSESESESIPILTSSSEIPIASSSSEIPVASSSSEIIIPESESESVPVASSSSEIPIASSSSEIPVASSSSEIPVASSSSEIIIPESESESIPIESTSSEAVSSRSESDSSYPTPTPTTTTITTWPNPIQPTTSNSSPIVSSSTETPGIAESSSRISDLESSRRTSILGDDRTRTRTTITSTITEDGQIITITTTVTGFVPEPTGETEGNGSDDENPENPIENNTDENEFLDPEFTDDIPDDPAGPEDNGNGPVNPEQGNDNDPVNLEDSGNNGAVNPEQAPVNDEDNGGNDPVNPEQDNNNGPANPGQDSTNGSGNSDQIDNNPPTPEENAGDGNSNGNDPADPSRRTSILGDERTRASPGGTSQPTGANGNVNGNSPGANVNGGGTGNSNNNNNNNNNNNNGNAPNGGDGSNGDANQGPSRRTSLLGDERTRAGQAAPTGGSSPDNGIAGDTSNNGGAIVSQQVDDGGAGSPRRTSILGDVRSRTTLNGEVLNFEGSGVRRAVAGNLALPLMMVGLVFNL
[1]
  glycan array binding signal (z-score): -0.289
[2]
  glycan array binding signal (z-score): -0.217
